The term Kd denotes the equilibrium constant for the complex coming apart. For orientation: koff means a measure of how fast the partners let go of each other. The low end stands for slow dissociation, the high end for fast dissociation. Usually kon stands for the second-order rate constant of association.

Residue numbers refer to the chain shown, from its start. Like-named read-outs stand apart in the source and are kept apart here.

We go through 2 molecules from US20170037136A1 (Janssen / Centocor, published 2017).

In experiment [1] the target is T1, shCD154-his (soluble human CD154, His6 fusion) (human, UniProt P29965 113-261).
T1 sequence: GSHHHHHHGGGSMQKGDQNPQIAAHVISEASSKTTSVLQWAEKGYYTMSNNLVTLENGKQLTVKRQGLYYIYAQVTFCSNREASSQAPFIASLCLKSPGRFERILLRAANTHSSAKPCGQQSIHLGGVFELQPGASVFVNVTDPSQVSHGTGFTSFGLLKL
In words: cell-based or functional assay.

Experiment [2] deals with shCD154-ILZ (soluble human CD154, leucine zipper fusion) (human). Description: cell-based or functional assay.
Experiment [3] concerns the target T1, shCD154-his (soluble human CD154, His6 …). In words: cell-based or functional assay. The source holds these as a separate data set.
Experiment [4] shares this target. In words: SPR (ProteOn XPR36) as in Example 1, human CD154; mean ± SD, n = 8. As for the experimental part:
Affinity measurements using Surface Plasmon Resonance (SPR) were performed using a ProteOn XPR36 system (BioRad). […] Approximately 4700 RU (response units) of test antibodies were immobilized. The kinetic experiments were performed at 25° C. in running buffer (DPBS+0.03% polysorbate P20+100 μg/ml BSA). […] The association phase was monitored for 3 minutes at 50 μL/min followed by 15 minutes of buffer flow (dissociation phase). The chip surface was regenerated with two 18 second pulses of 100 mM H₃PO₄ (Sigma, Cat#7961) at 100 μL/min.
The collected data were processed using ProteOn Manager software. First, the data was corrected for background using inter-spots. Then, double reference subtraction of the data was performed by using the buffer injection for analyte injections. The kinetic analysis of the data was performed using a Langmuir 1:1 binding model.

B1: C4LB231 (antibody, human IgG1, kappa)
heavy: QVQLVQSGAEVKKPGSSVKVSCKASGGTFSSYGISWVRQAPGQGLEWMGWISPIFGNTNYAQKFQGRVTITADESTSTAYMELSSLRSEDTAVYYCARSRYYGDLDYWGQGTLVTVSSASTKGPSVFPLAPSSKSTSGGTAALGCLVKDYFPEPVTVSWNSGALTSGVHTFPAVLQSSGLYSLSSVVTVPSSSLGTQTYICNVNHKPSNTKVDKKVEPKSCDKTHTCPPCPAPEAAGASSVFLFPPKPKDTLMISRTPEVTCVVVDVSAEDPEVKFNWYVDGVEVHNAKTKPREEQYNSTYRVVSVLTVLHQDWLNGKEYKCKVSNKALPSSIEKTISKAKGQPREPQVYTLPPSREEMTKNQVSLTCLVKGFYPSDIAVEWESNGQPENNYKTTPPVLDSDGSFFLYSKLTVDKSRWQQGNVFSCSVMHEALHNHYTQKSLSLSPGK
light: DIQMTQSPSSLSASVGDRVTITCRASQSISSYLNWYQQKPGKAPKLLIYYANSLQSGVPSRFSGSGSGTDFTLTISSLQPEDFATYYCQQSDSIPWTFGQGTKVEIKRTVAAPSVFIFPPSDEQLKSGTASVVCLLNNFYPREAKVQWKVDNALQSGNSQESVTEQDSKDSTYSLSSTLTLSKADYEKHKVYACEVTHQGLSSPVTKSFNRGEC
notes: C4LB89 variable regions on IgG1sigma/kappa; also called C4LB89 VH on IgG1sigma
For the molecule B1, the “NF-κB SEAP reporter gene assay; IC50” value in experiment [1] was determined as 2.15 nM. Also, in experiment [2], the “NF-κB SEAP reporter gene assay; IC50” value was 1.21 nM. For the same molecule, in experiment [3], the “NF-κB SEAP reporter gene assay; IC50” value stood at 2.32 nM. In experiment [4], the Kd was determined as 0.031 nM, the koff is 7.81e-05 s⁻¹ and the kon was 2.53e+06 M⁻¹ s⁻¹.

B2: C4LB232 (antibody, human IgG1, kappa)
heavy: B1 heavy with M253Y, S255T, T257E
light: B1 light
notes: also called C4LB89 VH on IgG1sigmaYTE
On to B2, for which, in experiment [4], the Kd is 0.0352 nM, the koff stood at 8.89e-05 s⁻¹ and the kon was determined as 2.54e+06 M⁻¹ s⁻¹.
